Measurements taken from PubChem BioAssay AID1814 (Broad Institute, 2009).
The campaign covered roughly 300,000 compounds. About 22,000 (7.3%) were called active. The inconclusive results got no clear call from the source; some entries with a clear call stand among them for comparison. Rule as the data show it: active = activity score below about -60%; inconclusive = mostly about -28% to -61%; inactive = positive scores.

Test: Activators via SNCA 5'UTR binding, MLPCN (AID 1814)
Settings: alpha-synuclein 5'UTR reporter, activators screen; hits give low values; tested at 7.5 µM

Activity score, inconclusive:
CCOc1cccc(-c2nn3c(-c4ccco4)nnc3s2)c1 -57.6%
Clc1ccc(C2=NNC(=NCc3ccccc3)SC2)cc1 -53.9%
COc1ccccc1/C=C/C=N/n1c(-c2ccco2)n[nH]c1=S -48.2%
COc1ccccc1/C=N/NC(=O)c1cc2c(ccc3ccccc32)o1 -55.6%
Cn1cccc1/C=N/NC(=O)Cc1cccs1 -39.2%
Cc1ccc(SCC2CNc3nc4ccccc4c(=O)n32)c(C)c1 (stereo unspecified) -48.7%
COCOc1ccc(/C=C/C(=O)c2c(OCOC)cc(OCOC)c(CC=C(C)C)c2O)cc1OCOC -51.7%
COc1ccc(NCC(=O)Nc2ccc(C#N)cc2)cc1Cl -58.7%
Cc1ccc2nc(NC(=O)C3CCCN(S(=O)(=O)c4cccc5nsnc45)C3)sc2c1 (stereo unspecified) -45.2%
COc1ccc(Nc2ncnc3c2c(C)c(C)n3CCO)cc1 -58.3%
Cc1nc(/C(N)=N/OC(=O)c2ccc(Cl)cc2)c(C(F)(F)F)o1 -56.6%
Cc1ccc(Oc2cc([N+](=O)[O-])cc3c2C(=O)Nc2ccccc2O3)cc1 -56%
COc1ccc(NC(=O)/C(C#N)=C/c2ccc(OCc3ccccc3F)cc2)cc1 -56.3%
COc1ccc(OC)c(N=c2oc3c(OC)cccc3cc2C(=O)NCc2ccco2)c1 -36.9%
O=C(CCCN1C(=O)/C(=C/c2cccs2)SC1=S)NNC(=O)c1ccncc1 -45.5%
CC(C)(C)[C@H]1C=C(C(=O)Nc2ccccc2)O[C@@H](OCCCCO)C1 -59.8%
O=C1/C(=C/c2cccs2)Sc2ccccc21 -60%
CCOc1ccc(Cn2nnc(C(=O)NCCc3ccccc3)c2N)cc1 -51.5%
CCc1nnc(NC(=O)c2cccc(OC)c2)s1 -57.1%
O=C(Nc1ccccc1)c1nccn1Cc1ccc(F)cc1 -55.2%
O=c1[nH]cc(NCCc2ccccc2)c(=O)[nH]1 -59.5%
Cc1ccc(NC(=S)NCc2cccs2)cc1 -39.9%
CCOc1ccc2nc(NC(=S)NCc3ccccc3)sc2c1 -39.7%
Cc1ccccc1NC(=O)c1nc2nccc(C)n2n1 -59.7%
Cc1cc(N/C=C/C(=O)c2cccc3ccccc23)no1 -54.2%
COC(=O)Nc1ccc(SCC(=O)c2ccccc2)cc1 -60.3%
COc1ccc(-c2noc(C3CCCN(C(=O)c4ccccc4OC)C3)n2)cc1 (stereo unspecified) -49.1%
Cc1cccc(NC(=O)COc2ccccc2)c1 -47.9%
Cc1ccc(CNC(=O)Nc2ccc(F)cc2F)n1C -55%
O=C(Nc1ccc(N2CCOCC2)cc1)C1CCCCC1 -51%
COc1ccc(-c2cn3cc([N+](=O)[O-])ccc3n2)cc1OC -55.4%
CC(C)CCn1c(Sc2nc3ccccc3o2)nc2c1c(=O)[nH]c(=O)n2C -45.8%
NC(=O)c1sc2nc3c(cc2c1N)CCC3 -53.1%
Fc1cccc(NC(=S)Nc2ccc(Br)cc2)c1 -53.7%
Cc1cc(C)cc(NC(=O)Nc2cccnc2)c1 -52.5%
Cc1ccc(C(=O)Nc2cc(C)c(OCC(=O)N3CCOCC3)c(C)c2)cc1 -57.1%
O=c1oc(/C=C/c2ccco2)nc2sc3c(c12)CCC3 -51.5%
O=C(c1cccs1)N(C(=O)c1cccs1)c1ccccn1 -52.2%
CCCCOc1ccc(C(=O)N/C(=C\c2cccc([N+](=O)[O-])c2)C(=O)OC(C)C)cc1 -52.2%
CCn1cc(Br)c(C(=O)Nc2ccc(C(=O)OC(C)C)cc2)n1 -49%
CC(=O)Nc1ccc(N2C(=O)c3ccc(S(=O)(=O)c4ccc(C(=O)O)cc4)cc3C2=O)cc1 -34.1%
Cc1c(N=Cc2ccc(Br)s2)cccc1[N+](=O)[O-] -35.3%
COc1nc(SC)nc(Cl)c1Cc1ccc(OC(C)C)cc1 -54.9%
COc1ccc(OCCSc2nnc(CC(=O)Nc3cccc(Cl)c3Cl)n2C)cc1 -60.5%
Brc1cc2c(cc1-c1nc3ccccc3s1)OCO2 -55%
Cc1cc(C)cc(Nc2ncnc3nc[nH]c23)c1 -50.3%
CN(c1ccc(OCC(=O)Nc2nc3ccccc3s2)cc1)S(=O)(=O)c1ccccc1 -45.5%
Cc1cccc(NC(=S)Nc2ccc(N3CCOCC3)cc2)c1C -56.8%
C=C1CCC[C@]2(C)C[C@H]3OC(=O)C(CN4CCOCC4)[C@H]3C[C@@H]12 (stereo partly specified) -61.2%
O=C(CSc1c[nH]c2ccccc12)N1CCOCC1 -58.8%
CCCCc1c(O)nc2sc3cc(OC)ccc3n2c1=O -48.1%
C=CCn1c(SCC(=O)CC(=O)OCC)nc2cc(C(=O)N3CCC(C(N)=O)CC3)ccc2c1=O -29.9%
Cc1ccccc1CSCc1nc2ccccc2[nH]1 -57%
N/C(CS(=O)(=O)c1ccccc1)=N\OC(=O)c1ccc(F)cc1 -55.1%
CCN(CC)CCN(C(=O)/C=C/c1cccs1)c1nc2ccc(F)cc2s1 -55.6%
CCCSC1=NN2CCCC(=O)N=C2S1 -60%
COc1ccc2occ(C(=O)c3coc4ccc(O)c(CN(C)C)c34)c2c1 -59.5%
CC(C(=O)NC1C=CS(=O)(=O)C1)N1C(=O)/C(=C\c2ccccc2)SC1=S (stereo unspecified) -40.5%
O=C(c1ccco1)N1CCN(C(=O)c2ccc(CS(=O)c3ccc(F)cc3)o2)CC1 (stereo unspecified) -46.9%

Activity score, active:
Cc1nc2cc3ccccc3cc2c(=O)[nH]1 -112%
CN1CCC(=NNC(=O)C(=O)Nc2ccc(F)cc2)CC1 -92.5%
O=C(Nc1ccccc1)Nc1nc2ccccc2s1 -64.8%
COc1ccc(-c2cc(=NC(CC(C)C)C(=O)O)c3cc(C)ccc3o2)cc1 (stereo unspecified) -153%
c1ccc(-c2nc(-c3ccc(-c4ccon4)s3)no2)cc1 -104%
Cc1ccnc(Nc2nc(-c3c(C)nc4sccn34)cs2)c1 -103%
Cc1ccccc1OCC(=O)Nc1cccc(N(C)S(C)(=O)=O)c1 -61.8%
Cc1nc2nc(-c3ccccc3)nn2c(C)c1C -105%
Cn1c(=O)n(C)c2cc(C(=O)Nc3ccc4c(c3)OCO4)ccc21 -191%
Cc1ccc(OCc2cc(C(=O)N3CCC(C(O)C(C)C)CC3)no2)cc1C (stereo unspecified) -80%
CCCN1CCC(=NNc2ccc(C(=O)O)cc2)CC1 -113%
O=C(O)c1cccc(N=NN2CCCCCC2)c1 -74.8%
CC(=O)c1cccc(NC(=O)CN2C=NS(=O)(=O)c3ccc(C)cc32)c1 -124%

Activity score, inactive:
CCOc1ccc(-n2c(SCC(=O)Nc3ccc(Br)cc3)nc3n[nH]c(C)c3c2=N)cc1 81.5%
CN(C)c1ccc(CNc2nc3ccccc3s2)cc1 80.2%
O=C(Nc1ccc(N2CCN(C(=O)c3ccc(Cl)cc3)CC2)cc1)c1ccc([N+](=O)[O-])o1 120%
CN(C(=O)COC(=O)c1c2c(nc3ccccc13)/C(=C/c1cccc([N+](=O)[O-])c1)CCC2)C1CCS(=O)(=O)C1 (stereo unspecified) 72%
CCOC(=O)c1ccc(S(=O)(=O)NCCN(CC)CC)cc1 51.6%
COC(=O)c1[nH]c2ccc(Br)cc2c1NC(=O)CN1CCN(C2CCCCC2)CC1 75.1%
Cc1ccc(C2(c3ccc(C)cc3)CC2C(=O)Nc2ccc([N+](=O)[O-])cc2O)cc1 (stereo unspecified) 67.2%
Cc1cc(NCCCn2ccnc2)n2nc(C)c(-c3ccc(Cl)cc3)c2n1 53.8%
O=C(Cn1cnc2c(oc3nc4c(cc32)CCCC4)c1=O)Nc1cccc(Cl)c1 66.3%
COc1ccc2nc(C)cc(SCC(=O)N/N=C/c3cccc4ccccc34)c2c1 47.1%
Cc1nc2cc(-c3ccccc3)nn2c(C)c1CCC(=O)NCc1ccco1 53.4%
COc1ccc(-c2csc(NC(=O)c3ccc(C(C)(C)C)cc3)c2C(=O)O)cc1 42.5%
CC(C)(C)c1nnc(N/N=C/c2cc(Br)ccc2O)n(N)c1=O 116%
COc1ccc2nc(Nc3nc(CSc4nc5ccccc5[nH]4)cc(=O)[nH]3)nc(C)c2c1 103%
Cc1cc(C(=O)CSc2nnc(N)s2)c(C)n1Cc1cccs1 69%
COc1cc2c(c(OC)c1OC)-c1ccc(N(C)CC(OC)OC)c(=O)cc1[C@@H](NC(C)=O)CC2 84.1%
C=CCn1c(SCC(=O)c2[nH]c(C)c(C(=O)OCC)c2C)nc2scc(-c3ccc(OC)c(OC)c3)c2c1=O 60.1%
C=CCn1c(C)cc(C2=NNC(=NCC)SC2)c1C 105%
Nc1ccc2oc(-c3cccc4ccccc34)nc2c1 70.8%
